# Among all 280,000 compounds or so, about 100 (0.036%) were called active. Inconclusive means that the source gave no clear call. Such entries were picked first, then a sample of the others. Calls follow the shape of the dose curve; as a rule, active = well fitted inhibition curve with a large enough effect in the signal ratio, with a control signal flat (not every such curve was filed as active); inconclusive = small, poorly fitted or top-dose-only effect, or effect the other way, or a change in a side signal; inactive = no such curve, though single readings can be large or run the other way; the % refers to the signal ratio. Where the call is inconclusive, the potency comes from a doubtful curve fit. A note “side channel” means that the fit belongs to a control or component signal, not to the main read-out.
# Biological target: Muscleblind-like protein 1 (Homo sapiens) (UniProt Q9NR56)
# Assay: qHTS Assay for Inhibitors of MBNL1-poly(CUG) RNA binding
# Details: TR-FRET MBNL1-His/biotin-(CUG)12 binding, 665/545 ratio; series mostly up to 57.5 µM
# Outline: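 TR-FRET between His-tagged MBNL1 and biotin-(CUG)12 RNA, detected with Tb anti-His antibody (0.055 ng/ul) and streptavidin-XL665 (5 nM), 60 min at room temperature. Compounds titrated 92 nM to 58 uM; 665/545 nm ratio normalized to buffer and complex controls.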
# Potency is read from the fitted curve at half-maximal effect; tags tell the direction and shape of the fitted curve or compound fluorescence and quenching.
# Sequence of UniProt Q9NR56 (Q9NR56 whole entry, looked up): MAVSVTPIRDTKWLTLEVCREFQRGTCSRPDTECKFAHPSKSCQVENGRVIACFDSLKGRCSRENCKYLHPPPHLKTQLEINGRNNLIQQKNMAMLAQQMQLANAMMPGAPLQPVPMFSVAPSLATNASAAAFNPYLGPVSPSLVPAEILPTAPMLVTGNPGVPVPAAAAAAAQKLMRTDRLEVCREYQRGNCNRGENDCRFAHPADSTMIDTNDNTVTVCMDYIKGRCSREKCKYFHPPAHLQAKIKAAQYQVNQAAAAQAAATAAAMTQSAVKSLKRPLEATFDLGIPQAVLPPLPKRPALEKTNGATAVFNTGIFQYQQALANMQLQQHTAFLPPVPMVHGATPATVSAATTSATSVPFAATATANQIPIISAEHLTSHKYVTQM
row,Structure (SMILES),Potency
1,N=c1oc2cc(O)ccc2cc1C(=O)Nc1ccccn1,"inconclusive: 28.2 µM [quencher, side channel, partial curve]"
2,O=C(NCc1cccs1)C1CCCN1C(=O)Nc1ccccc1[N+](=O)[O-] (stereo not drawn),"inconclusive: 11.2 µM [quencher, side channel, partial curve]"
3,CC(C)c1ccc(S(=O)(=O)/N=C2/C=C(Sc3ncn[nH]3)C(=O)c3ccccc32)cc1,"inconclusive: 17.8 µM [activator, single point]"
4,O=C(O)c1ccc(COc2ccc([N+](=O)[O-])cc2)o1,"inconclusive: 12.6 µM [quencher, side channel, partial curve]"
5,Cc1nc(NCCc2ccc(O)cc2)c2nnn(Cc3ccccc3)c2n1,inactive
6,Cc1cccnc1Nc1nc(-c2ccc(O)c(O)c2)cs1,inactive
7,CCOC(=O)c1c(NC(C)=O)sc2c(OCC(O)CNC(C)(C)C)c(Br)ccc12 (stereo not drawn),"inconclusive: 15.8 µM [quencher, side channel, partial curve]"
8,O=C(CSC(=S)N1CCOCC1)Nc1nc(-c2ccccc2)c(-c2ccccc2)o1,inactive
9,Cc1cc(/C=N/n2cnnc2)c(C)n1-c1ccc(OCc2ccc(Cl)cc2)cc1,inactive
10,CCCCNC(=O)NS(=O)(=O)c1ccc(C)cc1,"inconclusive: 63.1 µM [inhibitor, single point]"
11,CCN(CC)CCn1c(NCc2nc3ccccc3n2Cc2ccccc2)nc2ccccc21,inactive
12,COc1cccc(OCCOc2cccc(/C=N/n3cnnc3)c2)c1,"inconclusive: 7.08 µM [quencher, side channel, single point]"
13,O=C(NCc1ccco1)c1ccc(Cl)cc1[N+](=O)[O-],"inconclusive: 28.2 µM [quencher, side channel, partial curve]"
14,Nc1[nH]n(-c2ccccc2)c(=O)c1N=Nc1ccccc1,"inconclusive: 28.2 µM [quencher, side channel, partial curve]"
15,Cc1ccc(S(=O)(=O)/C(C#N)=C/c2c(N3CCN(C)CC3)nc3ccccn3c2=O)cc1,"inconclusive: 15.8 µM [quencher, side channel, partial curve]"
16,O=C(Nc1ccc(Oc2ccccc2)cc1)c1ccc(Cn2c(=O)[nH]c3ccsc3c2=O)cc1,"inconclusive: 0.891 µM [fluorescent, side channel, single point]"
17,CC(=O)N1CCc2cc(N=NC3=C(O)CCCC3=O)ccc21,"inconclusive: 12.6 µM [quencher, side channel, partial curve]"
18,c1ccc(CN2CCN(c3nc4ccccc4c4ccccc34)CC2)cc1,inactive
19,CSc1cccc(N=C2C(=O)Nc3ccccc32)c1,"inconclusive: 25.1 µM [quencher, side channel, partial curve]"
20,COC(=O)c1cc(NC(=O)c2ccc([N+](=O)[O-])cc2)c(=O)oc1C,"inconclusive: 3.16 µM [quencher, side channel, full curve, poor fit]"
21,O=C(N/N=C\c1cn(-c2ccccc2)nc1-c1ccccc1)c1ccc(Br)o1,inactive

row,Structure (SMILES),Potency
1,OCCN(Cc1ccccc1)C(=S)NC1CCCCC1,inactive
2,CCN(CCCCN1C(=O)c2ccccc2C1=O)c1ccc2c(c1)C(=O)N(C)C2=O,"inconclusive: 15.8 µM [quencher, side channel, partial curve]"
3,Cc1[nH]c2ccccc2c1/C=N/Nc1cccc(C(=O)O)c1,"inconclusive: 14.1 µM [quencher, side channel, partial curve]"
4,COc1ccc(C=Nc2ccc3[nH]ncc3c2)c(O)c1,"inconclusive: 1.12 µM [quencher, side channel, full curve]"
5,O=C1C(Cl)=C(NCC2CCCO2)C(=O)N1c1ccccc1 (stereo not drawn),"inconclusive: 11.2 µM [quencher, side channel, partial curve]"
6,CC(C)NC(=O)c1cccc2c1-c1ccccc1C2=O,"inconclusive: 10 µM [quencher, side channel, partial curve]"
7,CC1CCN(C2=C(NS(=O)(=O)c3ccc(Br)cc3)C(=O)c3ccccc3C2=O)CC1,"inconclusive: 5.62 µM [quencher, side channel, partial curve]"
8,COc1ccccc1-c1cc(C(F)(F)F)c(C#N)c(=O)[nH]1,inactive
9,O=C(Cn1c(NCCCO)nc2ccccc21)c1ccc([N+](=O)[O-])cc1,"inconclusive: 12.6 µM [quencher, side channel, partial curve]"
10,CCC1Sc2ccc(S(=O)(=O)CCC(=O)Nc3ccccc3Cl)cc2NC1=O (stereo not drawn),inactive
11,COC1CCCCC1NS(=O)(=O)c1ccccc1 (stereo not drawn),inactive
12,CN(CCOc1ccc(Br)cc1)CC(O)COc1ccc(C#N)cc1 (stereo not drawn),inactive
13,COc1cc(NC2CCCCC2O)c2nc(-c3ccc(Cl)cc3)ccc2c1 (stereo not drawn),"inconclusive: 7.94 µM [quencher, side channel, full curve]"
14,COc1ccc(-c2noc(CSc3nc(N)c(-c4ccccc4)c(=O)[nH]3)n2)cc1OC,inactive
15,CCOc1ccccc1NC(=O)CCS(=O)(=O)c1cccc2nonc12,"inconclusive: 14.1 µM [quencher, side channel, partial curve]"
16,C#CCn1c(O)c(N=NC(=O)CNC(=O)c2cccnc2)c2ccccc21,"inconclusive: 11.2 µM [quencher, side channel, partial curve]"
17,COc1ccc(N2C(=O)C3C4C=CC(CC4)C3C2=O)c([N+](=O)[O-])c1 (stereo not drawn),"inconclusive: 17.8 µM [quencher, side channel, partial curve]"
18,CC(=O)Nc1cccc2c1C(=O)N(c1ccccc1OC(C)=O)C2=O,"inconclusive: 14.1 µM [quencher, side channel, partial curve]"
19,CC1CCCC(C)N1NC(=S)Nc1ccc(OC(F)F)cc1 (stereo not drawn),"inconclusive: 0.794 µM [fluorescent, side channel, full curve, poor fit]"
20,Cc1ccn(CC(=O)N/N=C/c2cc([N+](=O)[O-])ccc2O)n1,"inconclusive: 25.1 µM [quencher, side channel, single point]"
21,CCN(CC)C1=CC2=CC(=C(C#N)C#N)CCC2CC1 (stereo not drawn),"inconclusive: 3.55 µM [quencher, side channel, partial curve]"

row,Structure (SMILES),Potency
1,Oc1ccc(Nc2ccnc3cc(Cl)ccc23)cc1,"inconclusive: 14.1 µM [quencher, side channel, partial curve]"
2,O=C(N/N=C/c1cccc(O)c1)N/N=C/c1cccc(O)c1,"inconclusive: 28.2 µM [quencher, side channel, single point]"
3,COc1cc(/C=C(/NC(=O)c2ccccc2)C(=O)N2CCN(C)CC2)c([N+](=O)[O-])cc1OC,"inconclusive: 39.8 µM [quencher, side channel, single point]"
4,N#Cc1c(NC(=O)Cn2cnc3ccccc3c2=O)oc(-c2ccccc2)c1-c1ccccc1,inactive
5,OCC1(Cc2ccccc2)CCCN(Cc2ccc(-c3ccco3)cc2)C1 (stereo not drawn),inactive
6,O=C(CCc1ccccc1)NC(=S)Nc1ccccc1[N+](=O)[O-],"inconclusive: 31.6 µM [quencher, side channel, partial curve]"
7,Cc1c(N=Cc2c(O)n(Cc3ccco3)c(=O)c3ccccc23)c(=O)n(-c2ccccc2)n1C,"inconclusive: 20 µM [quencher, side channel, partial curve]"
8,O=C(Cc1ccc([N+](=O)[O-])cc1)N1CCN(c2ccc([N+](=O)[O-])cc2)CC1,"inconclusive: 6.31 µM [quencher, side channel, partial curve]"
9,O=S(=O)(c1cccc2nsnc12)N1CCNCC1,"inconclusive: 15.8 µM [quencher, partial curve]"
10,COc1cc(C(=O)N2CCN(C(=O)C(Cc3cc(C)ccc3C)NC(C)=O)CC2)cc(OC)c1OC (stereo not drawn),"inconclusive: 39.8 µM [quencher, side channel, single point]"
11,O=C(CSc1nc2ccccc2c(=O)n1-c1ccc(F)cc1)Nc1ccc(Cl)c(S(=O)(=O)N2CCOCC2)c1,"inconclusive: 39.8 µM [fluorescent, single point]"
12,O=C(O)[C@H]1CCC(=O)N1Cc1ccco1,"inconclusive: 39.8 µM [quencher, side channel, single point]"
13,O=C(N/N=C/c1cc2c(cc1Br)OCO2)c1cccnc1,"inconclusive: 39.8 µM [quencher, side channel, single point]"
14,CCc1ccc2c(c1)C1(NN=C(c3ccc(C)cc3)S1)C(=O)N2 (stereo not drawn),"inconclusive: 39.8 µM [quencher, single point]"
15,O=C1CCCc2c1[nH]c1ccc(CN3CCCCC3)cc21,"inconclusive: 12.6 µM [quencher, side channel, partial curve]"
16,COc1cc2c(cc1OC)CN(CC(=O)Nc1cccc([N+](=O)[O-])c1)CC2,"inconclusive: 11.2 µM [quencher, side channel, partial curve]"
17,CCOc1cc(/C=C2/C(=O)ON=C2C)ccc1OCc1ccc(F)cc1,inactive
18,Clc1ccc(OCCN2CCN(c3ncnc4sccc34)CC2)cc1,inactive
19,COc1ccc2c(C)cc(N3CCN(c4ccc(F)cc4)CC3)nc2c1,inactive
20,O=C(O)c1ccccc1NC(=S)NC(=O)c1sc2ccccc2c1Cl,inactive
21,O=c1c2cc([N+](=O)[O-])ccc2nc(CN2CCN(c3ccccn3)CC2)n1-c1ccccc1F,"inconclusive: 6.31 µM [quencher, side channel, partial curve]"
